# Assay results reported in patent US20110033389A1 (published 2011).
# Read-outs that look alike come from different tables or passages of the source.
# Tests used:
# [1] = molecular target: T1, glycoprotein D of Herpes simplex virus, on HSV-1 virus (Herpes simplex virus (HSV-1 virus in …)); assay: cell-based or functional assay
# [2] = molecular target: T1, glycoprotein D of Herpes simplex virus, …; assay: cell-based or functional assay; remark: listed apart in the source
# [3] = molecular target: T1, glycoprotein D of Herpes simplex virus, …; assay: cell-based or functional assay; remark: listed apart in the source
# [4] = molecular target: T1, glycoprotein D of Herpes simplex virus, …; assay: cell-based or functional assay; remark: listed apart in the source
# [5] = molecular target: T1, glycoprotein D of Herpes simplex virus, …; assay: stated for the negative control in Example 8; no direct binding assay described; no inhibition in plaque assays
binder,measurement,setting,value
AC8scFvTAT2A (scFv) scFv: [sequence of about 100 residues omitted]GGSSRSSSSGGGGSGGGGQVQLVQSGAEVKKPGSSVKVSCKASGGSFSSYAINWVRQAPGQGLEWMGGLMPIFGTTNYAQKFQDRLTITADVSTSTAYMQLSGLTYEDTAMYYCARVAYMLEPTVTAGGLDVWGQGTTVTVSSASTKGGQAGQHHHHHHGAYPYDVPDYASGGKKRKKEKKKR,Plaque Reduction Rate Percentage (Average plaque number per plate) at 0.008 µg/ml; HSV-1 neutralization in solution,[1],0%
same,Plaque Reduction Rate Percentage (Average plaque number per plate) at 0.04 µg/ml; HSV-1 neutralization in solution,[1],1%
same,Plaque Reduction Rate Percentage (Average plaque number per plate) at 0.2 µg/ml; HSV-1 neutralization in solution,[1],36%
same,Plaque Reduction Rate Percentage (Average plaque number per plate) at 1 µg/ml; HSV-1 neutralization in solution,[1],97%
same,Plaque Reduction Rate Percentage (Average plaque number per plate) at 5 µg/ml; HSV-1 neutralization in solution,[1],98%
same,"Plaque Reduction Rate Percentage (Average plaque number per plate) at 0.2 µg/ml; virus prevention assay (cells pre-treated with antibody, washed, then HSV-1)",[2],4%
same,"Plaque Reduction Rate Percentage (Average plaque number per plate) at 0.6 µg/ml; virus prevention assay (cells pre-treated with antibody, washed, then HSV-1)",[2],9%
same,"Plaque Reduction Rate Percentage (Average plaque number per plate) at 1.9 µg/ml; virus prevention assay (cells pre-treated with antibody, washed, then HSV-1)",[2],37%
same,"Plaque Reduction Rate Percentage (Average plaque number per plate) at 5.6 µg/ml; virus prevention assay (cells pre-treated with antibody, washed, then HSV-1)",[2],69%
same,"Plaque Reduction Rate Percentage (Average plaque number per plate) at 16.7 µg/ml; virus prevention assay (cells pre-treated with antibody, washed, then HSV-1)",[2],95%
same,"Plaque Reduction Rate Percentage (Average plaque number per plate) at 50 µg/ml; virus prevention assay (cells pre-treated with antibody, washed, then HSV-1)",[2],98%
same,"ED50; plaque reduction assay, HSV-1 neutralization in solution",[3],~0.2 µg/mL
same,"ED50 against HSV-1 infection; virus prevention assay (cells pre-treated with antibody, washed, then HSV-1)",[3],3 µg/mL
AC8scFvTAT2B (scFv) scFv: [sequence of about 100 residues omitted]GGSSRSSSSGGGGSGGGGQVQLVQSGAEVKKPGSSVKVSCKASGGSFSSYAINWVRQAPGQGLEWMGGLMPIFGTTNYAQKFQDRLTITADVSTSTAYMQLSGLTYEDTAMYYCARVAYMLEPTVTAGGLDVWGQGTTVTVSSASTKGGQAGQHHHHHHGAYPYDVPDYASGGKRRKRNPRRR,Plaque Reduction Rate Percentage (Average plaque number per plate) at 0.008 µg/ml; HSV-1 neutralization in solution,[1],0%
same,Plaque Reduction Rate Percentage (Average plaque number per plate) at 0.04 µg/ml; HSV-1 neutralization in solution,[1],0%
same,Plaque Reduction Rate Percentage (Average plaque number per plate) at 0.2 µg/ml; HSV-1 neutralization in solution,[1],42%
same,Plaque Reduction Rate Percentage (Average plaque number per plate) at 1 µg/ml; HSV-1 neutralization in solution,[1],95%
same,Plaque Reduction Rate Percentage (Average plaque number per plate) at 5 µg/ml; HSV-1 neutralization in solution,[1],100%
same,"Plaque Reduction Rate Percentage (Average plaque number per plate) at 0.2 µg/ml; virus prevention assay (cells pre-treated with antibody, washed, then HSV-1)",[2],0%
same,"Plaque Reduction Rate Percentage (Average plaque number per plate) at 0.6 µg/ml; virus prevention assay (cells pre-treated with antibody, washed, then HSV-1)",[2],0%
same,"Plaque Reduction Rate Percentage (Average plaque number per plate) at 1.9 µg/ml; virus prevention assay (cells pre-treated with antibody, washed, then HSV-1)",[2],4%
same,"Plaque Reduction Rate Percentage (Average plaque number per plate) at 5.6 µg/ml; virus prevention assay (cells pre-treated with antibody, washed, then HSV-1)",[2],55%
same,"Plaque Reduction Rate Percentage (Average plaque number per plate) at 16.7 µg/ml; virus prevention assay (cells pre-treated with antibody, washed, then HSV-1)",[2],93%
same,"Plaque Reduction Rate Percentage (Average plaque number per plate) at 50 µg/ml; virus prevention assay (cells pre-treated with antibody, washed, then HSV-1)",[2],99%
same,"ED50; plaque reduction assay, HSV-1 neutralization in solution",[3],~0.2 µg/mL
same,"ED50 against HSV-1 infection; virus prevention assay (cells pre-treated with antibody, washed, then HSV-1)",[3],5.2 µg/mL
"AC8scFvTATscrambled (scFv, Control antibody; also called CDR3 scrambled antibody) scFv: [sequence of about 100 residues omitted]GGSSRSSSSGGGGSGGGGQVQLVQSGAEVKKPGSSVKVSCKASGGSFSSYAINWVRQAPGQGLEWMGGLMPIFGTTNYAQKFQDRLTITADVSTSTAYMQLSGLTYEDTAMYYCARVVADYLMGLGEAPTTVWGQGTTVTVSSASTKGGQAGQHHHHHHGAYPYDVPDYASRGRKKRRQRRR","Plaque Reduction Rate Percentage (Average plaque number per plate) at 0.2 µg/ml; virus prevention assay (cells pre-treated with antibody, washed, then HSV-1)",[4],3%
same,"Plaque Reduction Rate Percentage (Average plaque number per plate) at 0.6 µg/ml; virus prevention assay (cells pre-treated with antibody, washed, then HSV-1)",[4],0%
same,"Plaque Reduction Rate Percentage (Average plaque number per plate) at 1.9 µg/ml; virus prevention assay (cells pre-treated with antibody, washed, then HSV-1)",[4],0%
same,"Plaque Reduction Rate Percentage (Average plaque number per plate) at 5.6 µg/ml; virus prevention assay (cells pre-treated with antibody, washed, then HSV-1)",[4],0%
same,"Plaque Reduction Rate Percentage (Average plaque number per plate) at 16.7 µg/ml; virus prevention assay (cells pre-treated with antibody, washed, then HSV-1)",[4],0%
same,"Plaque Reduction Rate Percentage (Average plaque number per plate) at 50 µg/ml; virus prevention assay (cells pre-treated with antibody, washed, then HSV-1)",[4],3%
same,"Plaque Reduction Rate Percentage (Average plaque number per plate) at 50 µg/ml; virus prevention assay (cells pre-treated with antibody, washed, then HSV-1)",[2],0%
same,binding result,[5],no binding
